# Data: paper PMC6821195, “The internal interaction in RBBP5 regulates assembly and activity of MLL1 methyltransferase complex” (Nucleic Acids Research, 2019)
# B1: full-length RBBP5 (RBBP5_([…])) (natural protein)
# chain: not shown
# notes: The methods also say that RBBP5 WD40-containing constructs were made as His-Sumo fusions in Rosetta cells and cut with Ulp1; also called RBBP5FL
# B2: RBBP5_(WDRP) (RBBP5_([…])) (domain or fragment)
# chain: not shown
# notes: also called WD40 repeat proximal region
# B3: MLL1_(WIN-SET) (MLL1_([…])) containing both WIN motif and SET domain (domain or fragment)
# chain: not shown
# notes: MLL1 (KMT2A), […] (WIN motif and SET domain)
# Assays:
# WDR5Δ22 (WDR5_(23–334)) = WDR5Δ22 (WDR5_(23–334)) (UniProt P61964); test: ITC; RBBP5 constructs with WDR5_(23–334); 150 mM NaCl, 25 mM Tris–HCl pH 8.0; 20°C; one-site model; conditions: both partners purified
# [1] = biological target: B1; test: cross-linking; SEC-purified MLL1_(3754–3969)–WDR5_(23–334)–RBBP5FL–ASH2LFL complex, 5 μM, zero-length cross-linker EDC/Sulfo-NHS; 150 mM NaCl, 25 mM HEPES pH 7.0; room temperature; LC-MS/MS, pLink2; conditions: both partners purified
Binder,binding result (WDR5Δ22 (WDR5_(23–334))),binding result [1]
B1,binds,
B2,binds,
B3,,binds
